Positions count from the first letter of the chain named. Some of the results follow.
T1: RBFOX1 RRM (Homo sapiens, UniProt Q9NWB1 109-208)
T1 sequence: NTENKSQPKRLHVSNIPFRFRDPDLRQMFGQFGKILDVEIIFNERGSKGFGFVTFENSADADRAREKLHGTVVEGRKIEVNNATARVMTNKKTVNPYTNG

B1: CACGAUA (DNA:RNA)
RNA: GGGAGACCGGAAUUCAGAUUGUCCCACGAUAUUAAAUCCCGUCGUAGCCACCA
DNA 1: CAATCTGAATTCCGGTCTCCC
DNA 2: TGGTGGCTACGACGGGATT
B2: GUCUUGG (DNA:RNA)
RNA: B1 RNA with C25G, A26U, G28U, A29U, U30G, A31G
DNA 1: CAATCTGAATTCCGGTCTCCC
DNA 2: TGGTGGCTACGACGGGATT
B3: AGAAAAU (DNA:RNA)
RNA: B1 RNA with C25A, A26G, C27A, G28A, U30A, A31U
DNA 1: CAATCTGAATTCCGGTCTCCC
DNA 2: TGGTGGCTACGACGGGATT
B4: AUAUCCU (DNA:RNA)
RNA: GGGAGACCGGAAUUCAGAUUGUCCAUAUCCUUUAAAUCCCGUCGUAGCCACCA
DNA 1: CAATCTGAATTCCGGTCTCCC
DNA 2: TGGTGGCTACGACGGGATT
B5: AUAUGUG (DNA:RNA)
RNA: B4 RNA with C29G, C30U, U31G
DNA 1: CAATCTGAATTCCGGTCTCCC
DNA 2: TGGTGGCTACGACGGGATT
B6: CAAUGUU (DNA:RNA)
RNA: B4 RNA with A25C, U26A, C29G, C30U
DNA 1: CAATCTGAATTCCGGTCTCCC
DNA 2: TGGTGGCTACGACGGGATT
B7: GUAUCAC (DNA:RNA)
RNA: B4 RNA with A25G, C30A, U31C
DNA 1: CAATCTGAATTCCGGTCTCCC
DNA 2: TGGTGGCTACGACGGGATT
B8: GUAUGCC (DNA:RNA)
RNA: B4 RNA with A25G, C29G, U31C
DNA 1: CAATCTGAATTCCGGTCTCCC
DNA 2: TGGTGGCTACGACGGGATT
B9: AUGUGAG (DNA:RNA)
RNA: B4 RNA with A27G, C29G, C30A, U31G
DNA 1: CAATCTGAATTCCGGTCTCCC
DNA 2: TGGTGGCTACGACGGGATT
B10: ACCUUGA (DNA:RNA)
RNA: B4 RNA with U26C, A27C, C29U, C30G, U31A
DNA 1: CAATCTGAATTCCGGTCTCCC
DNA 2: TGGTGGCTACGACGGGATT
B11: CGGUGUC (DNA:RNA)
RNA: B1 RNA with A26G, C27G, G28U, A29G, A31C
DNA 1: CAATCTGAATTCCGGTCTCCC
DNA 2: TGGTGGCTACGACGGGATT
B12: UCAACUG (DNA:RNA)
RNA: B4 RNA with A25U, U26C, U28A, C30U, U31G
DNA 1: CAATCTGAATTCCGGTCTCCC
DNA 2: TGGTGGCTACGACGGGATT
B13: AGGAAUG (DNA:RNA)
RNA: B1 RNA with C25A, A26G, C27G, G28A, A31G
DNA 1: CAATCTGAATTCCGGTCTCCC
DNA 2: TGGTGGCTACGACGGGATT
B14: GUAAGUA (DNA:RNA)
RNA: B4 RNA with A25G, U28A, C29G, C30U, U31A
DNA 1: CAATCTGAATTCCGGTCTCCC
DNA 2: TGGTGGCTACGACGGGATT
B15: AUAUCGG (DNA:RNA)
RNA: B4 RNA with C30G, U31G
DNA 1: CAATCTGAATTCCGGTCTCCC
DNA 2: TGGTGGCTACGACGGGATT
B16: AGCGGUA (DNA:RNA)
RNA: B1 RNA with C25A, A26G, A29G
DNA 1: CAATCTGAATTCCGGTCTCCC
DNA 2: TGGTGGCTACGACGGGATT
B17: CCCCGUG (DNA:RNA)
RNA: B1 RNA with A26C, G28C, A29G, A31G
DNA 1: CAATCTGAATTCCGGTCTCCC
DNA 2: TGGTGGCTACGACGGGATT
B18: UGAAUGU (DNA:RNA)
RNA: B4 RNA with A25U, U26G, U28A, C29U, C30G
DNA 1: CAATCTGAATTCCGGTCTCCC
DNA 2: TGGTGGCTACGACGGGATT
B19: CUCCCCU (DNA:RNA)
RNA: B4 RNA with A25C, A27C, U28C
DNA 1: CAATCTGAATTCCGGTCTCCC
DNA 2: TGGTGGCTACGACGGGATT
B20: CUGUCUU (DNA:RNA)
RNA: B4 RNA with A25C, A27G, C30U
DNA 1: CAATCTGAATTCCGGTCTCCC
DNA 2: TGGTGGCTACGACGGGATT
B21: GUAAAAC (DNA:RNA)
RNA: B4 RNA with A25G, U28A, C29A, C30A, U31C
DNA 1: CAATCTGAATTCCGGTCTCCC
DNA 2: TGGTGGCTACGACGGGATT
B22: CGCCGGA (DNA:RNA)
RNA: B1 RNA with A26G, G28C, A29G, U30G
DNA 1: CAATCTGAATTCCGGTCTCCC
DNA 2: TGGTGGCTACGACGGGATT
B23: CUACACG (DNA:RNA)
RNA: B4 RNA with A25C, U28C, C29A, U31G
DNA 1: CAATCTGAATTCCGGTCTCCC
DNA 2: TGGTGGCTACGACGGGATT
B24: UCUGGUU (DNA:RNA)
RNA: B1 RNA with C25U, A26C, C27U, A29G, A31U
DNA 1: CAATCTGAATTCCGGTCTCCC
DNA 2: TGGTGGCTACGACGGGATT
B25: CGGGGAG (DNA:RNA)
RNA: B1 RNA with A26G, C27G, A29G, U30A, A31G
DNA 1: CAATCTGAATTCCGGTCTCCC
DNA 2: TGGTGGCTACGACGGGATT
B26: GUUACGA (DNA:RNA)
RNA: B4 RNA with A25G, A27U, U28A, C30G, U31A
DNA 1: CAATCTGAATTCCGGTCTCCC
DNA 2: TGGTGGCTACGACGGGATT
B27: UGUUGUC (DNA:RNA)
RNA: B4 RNA with A25U, U26G, A27U, C29G, C30U, U31C
DNA 1: CAATCTGAATTCCGGTCTCCC
DNA 2: TGGTGGCTACGACGGGATT
B28: AACAGGU (DNA:RNA)
RNA: B4 RNA with U26A, A27C, U28A, C29G, C30G
DNA 1: CAATCTGAATTCCGGTCTCCC
DNA 2: TGGTGGCTACGACGGGATT
B29: GUACAGG (DNA:RNA)
RNA: B4 RNA with A25G, U28C, C29A, C30G, U31G
DNA 1: CAATCTGAATTCCGGTCTCCC
DNA 2: TGGTGGCTACGACGGGATT
B30: ACUUCGC (DNA:RNA)
RNA: B4 RNA with U26C, A27U, C30G, U31C
DNA 1: CAATCTGAATTCCGGTCTCCC
DNA 2: TGGTGGCTACGACGGGATT
B31: UCGGCGU (DNA:RNA)
RNA: B4 RNA with A25U, U26C, A27G, U28G, C30G
DNA 1: CAATCTGAATTCCGGTCTCCC
DNA 2: TGGTGGCTACGACGGGATT

These binders were tested against T1, RBFOX1 RRM (assay: EMSA; HiTS-Eq, 1 nM pool, 10 min; buffer printed only for the single-RNA assays: 10 mM Tris pH 7.5, 150 mM NaCl, 3.4 mM EDTA, 0.001% NP-40, 30 C). Details: tags: His6 N-terminal (pET28a); label: 5' 32P.
Outline: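 Purified wild-type or mutant RbFox RRM at increasing concentrations was equilibrated with 1 nM of 5′-radiolabelled RNA carrying 7 randomized nucleotides for 10 min in 50 µL. Unbound RNA was separated by 8% native PAGE and sequenced. Relative association constants came from read-count changes of each RNA species compared with the control reaction, normalised to the cognate motif.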
In the case of B1, the binding signal is reported as 0.00196 KA relative to UGCAUGU.
In the case of B2, the binding signal is reported as 0.0272 KA relative to UGCAUGU.
B3 was tested, and the binding signal was 0.0045 KA relative to UGCAUGU.
With B4 the binding signal was 0.000782 KA relative to UGCAUGU.
B5 was tested, and the binding signal was 0.016 KA relative to UGCAUGU.
With B6 the binding signal was 0.00782 KA relative to UGCAUGU.
With B7 the binding signal was 0.00703 KA relative to UGCAUGU.
With B8 the binding signal was 0.0139 KA relative to UGCAUGU.
In the case of B9, the binding signal is reported as 0.00686 KA relative to UGCAUGU.
With B10 the binding signal was 0.006 KA relative to UGCAUGU.
In the case of B11, the binding signal is reported as 0.0167 KA relative to UGCAUGU.
For B12, the binding signal was 0.00683 KA relative to UGCAUGU.
With B13 the binding signal was 0.0471 KA relative to UGCAUGU.
In the case of B14, the binding signal is reported as 0.00628 KA relative to UGCAUGU.
For B15, the binding signal was 0.00687 KA relative to UGCAUGU.
With B16 the binding signal was 0.0112 KA relative to UGCAUGU.
For B17, the binding signal was 0.00883 KA relative to UGCAUGU.
In the case of B18, the binding signal is reported as 0.0386 KA relative to UGCAUGU.
For B19, the binding signal was 0.00374 KA relative to UGCAUGU.
B20 was tested, and the binding signal was 0.0133 KA relative to UGCAUGU.
For B21, the binding signal was 0.00209 KA relative to UGCAUGU.
For B22, the binding signal was 0.0133 KA relative to UGCAUGU.
B23 was tested, and the binding signal was 0.0101 KA relative to UGCAUGU.
In the case of B24, the binding signal is reported as 0.0209 KA relative to UGCAUGU.
In the case of B25, the binding signal is reported as 0.0234 KA relative to UGCAUGU.
B26 was tested, and the binding signal was 0.0124 KA relative to UGCAUGU.
With B27 the binding signal was 0.0242 KA relative to UGCAUGU.
In the case of B28, the binding signal is reported as 0.00491 KA relative to UGCAUGU.
With B29 the binding signal was 0.011 KA relative to UGCAUGU.
With B30 the binding signal was 0.00595 KA relative to UGCAUGU.
B31 was tested, and the binding signal was 0.0179 KA relative to UGCAUGU.

Reference: paper PMC9911399, “Two distinct binding modes provide the RNA-binding protein RbFox with extraordinary sequence specificity”
